Measured values taken from patent US6544989B2, “Benzazoles: benzoxazole, benzthiazole and benzimidazole derivatives” (Syngenta Limited, priority 1998, dated 2003).

Legend:
Conditions in all cases: 500 ppm by weight; mortality assessed usually between three and five days after treatment
[1] = system: Heliothis virescens
Procedure: (§1) The test procedure adopted with regard to each pest, except nematodes, was essentially the same and composed supporting a number of the pests on a medium which was usually a substrate, a host plant or a foodstuff on which the pests feed, and treating either or both the medium and the pests with a composition. Pest mortality was assessed usually between three and five days after treatment Knockdown of housefly (Musca domestica) was assessed 15 minutes after treatment

[2] = system: Tetranychus urticae
Procedure: as §1

[3] = system: Myzus persicae; experiment: Pesticidal test, Myzus persicae mortality
Procedure: as §1

SMILES	HELIVI = Heliothis virescens, grading of mortality (score) [1]	TETRUR = Tetranychus urticae, grading of mortality (score) [2]	MYZUPE = Myzus persicae, grading of mortality (score) [3]
CCCC(C)c1nc2cc(CC(=O)Nc3snc(C)c3Cl)ccc2o1 (stereo not drawn) [12(A3)]	0 (0 indicates less than 40% mortality)	5 (5 indicates 40-79% mortality)	5 (5 indicates 40-79% mortality)
Cc1nsc(NC(=O)Cc2ccc3oc(C(C)C#N)nc3c2)c1Cl (racemic) [115(A3)]	0 (0 indicates less than 40% mortality)	0 (0 indicates less than 40% mortality)	5 (5 indicates 40-79% mortality)
Cc1nsc(NC(=O)Cc2ccc3oc(C(c4ccccc4)c4ccccc4)nc3c2)c1Cl [246(A3)]	0 (0 indicates less than 40% mortality)	0 (0 indicates less than 40% mortality)	0 (0 indicates less than 40% mortality)
CCc1nsc(NC(=O)Cc2ccc3oc(C)nc3c2)c1Cl [2(A8)]	0 (0 indicates less than 40% mortality)	0 (0 indicates less than 40% mortality)	5 (5 indicates 40-79% mortality)
Cc1nsc(NC(=O)Cc2ccc3oc(CC4CCCC4)nc3c2)c1Cl [42(A3)]	0 (0 indicates less than 40% mortality)	9 (9 indicates 80-100% mortality)	5 (5 indicates 40-79% mortality)
Cc1nsc(NC(=O)Cc2ccc3oc(C(F)(F)C(F)F)nc3c2)c1Cl [79(A3)]	5 (5 indicates 40-79% mortality)	0 (0 indicates less than 40% mortality)	0 (0 indicates less than 40% mortality)
CCC(Cl)c1nc2cc(CC(=O)Nc3snc(C)c3Cl)ccc2o1 (racemic) [95(A3)]	0 (0 indicates less than 40% mortality)	0 (0 indicates less than 40% mortality)	9 (9 indicates 80-100% mortality)
Cc1nsc(NC(=O)Cc2ccc3oc(-c4ccno4)nc3c2)c1Cl [349(A3)]	0 (0 indicates less than 40% mortality)	0 (0 indicates less than 40% mortality)	0 (0 indicates less than 40% mortality)
Cc1nsc(NC(=O)Cc2ccc3oc(Cc4cccs4)nc3c2)c1Cl [334(A3)]	0 (0 indicates less than 40% mortality)	0 (0 indicates less than 40% mortality)	0 (0 indicates less than 40% mortality)
Cc1nsc(NC(=O)Cc2ccc3oc(-c4c(F)c(F)c(F)c(F)c4F)nc3c2)c1Cl [287(A3)]	0 (0 indicates less than 40% mortality)	0 (0 indicates less than 40% mortality)	0 (0 indicates less than 40% mortality)
Cc1nsc(NC(=O)Cc2ccc3oc(-c4c(Cl)cc(C(F)(F)F)cc4Cl)nc3c2)c1Cl [244(A3)]	0 (0 indicates less than 40% mortality)	0 (0 indicates less than 40% mortality)	0 (0 indicates less than 40% mortality)
